Reference: article PMC6212790
This is one part of the list. At the low end of the ranking the order means little.

These sequences were tested against T1, GST-Rok-C97-191 (UniProt O34857) (assay: protein binding microarray). Conditions: Rok is a gene silencer of Bacillus subtilis; high values mean tight binding; most listed sequences are background and not binding sites; double strand, one strand shown.
T1 sequence: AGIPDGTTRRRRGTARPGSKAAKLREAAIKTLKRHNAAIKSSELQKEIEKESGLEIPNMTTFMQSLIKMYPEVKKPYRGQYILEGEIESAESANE
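Also: rank score from −0.5 (least bound) to 0.5 (best bound).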

Row | Sequence | binding signal
1 | AATAGTGC | 0.111 E-score
2 | ACATCGCG | 0.139 E-score
3 | GCTTAGAC | -0.113 E-score
4 | ACCCCAAG | 0.00587 E-score
5 | GATCGTCC | -0.213 E-score
6 | GAGACTAC | 0.0702 E-score
7 | GTTCGATA | 0.148 E-score
8 | CGAACATC | -0.0576 E-score
9 | AACTGATA | 0.317 E-score
10 | GTATATGA | 0.224 E-score
11 | CCCTACCG | 0.00127 E-score
12 | AGATCAAG | 0.0327 E-score
13 | CCTTAACA | -0.086 E-score
14 | AAGATCTA | 0.288 E-score
15 | TAACTGAA | 0.17 E-score
16 | AATGCGTA | 0.0342 E-score
17 | CTCCAGAC | -0.108 E-score
18 | CCTGGAAC | -0.0442 E-score
19 | GAAGTATA | 0.164 E-score
20 | AGCTGTTG | 0.0786 E-score
21 | CGTATGCC | -0.193 E-score
22 | ACCAAGGA | -0.216 E-score
23 | CCGACTCC | -0.339 E-score
24 | GACTACTA | 0.373 E-score
25 | ACCGTATC | 0.121 E-score

Row | Sequence | binding signal
26 | CCGTCTTA | -0.161 E-score
27 | AAAGTGTA | 0.243 E-score
28 | ACGCTACG | 0.142 E-score
29 | CTACCGGA | 0.0979 E-score
30 | ATGGATGG | -7.41e-05 E-score
31 | ATATTCTA | 0.408 E-score
32 | CTATCCTA | 0.0657 E-score
33 | CTTTCACA | -0.0251 E-score
34 | AGCCAGGA | -0.159 E-score
35 | GTGATTAA | 0.0493 E-score
36 | AAAGGTGA | 0.0402 E-score
37 | CATAACGA | 0.133 E-score
38 | CTATGATC | 0.219 E-score
39 | GACCGTCA | -0.108 E-score
40 | AACGGATG | 0.133 E-score
41 | ACACTGAT | -0.0431 E-score
42 | ATGCCCCC | -0.27 E-score
43 | ACCTGGAG | -0.164 E-score
44 | AGCATAGC | -0.109 E-score
45 | CATACTGA | -0.0594 E-score
46 | CAAACATG | 0.0951 E-score
47 | AGTCGGGG | -0.16 E-score
48 | AATTCCCG | 0.0513 E-score
49 | ACCTCAGC | 0.0237 E-score
50 | AACCAGTC | -0.123 E-score

Row | Sequence | binding signal
51 | CTGCTCCA | -0.00585 E-score
52 | ACGGGACA | -0.0769 E-score
53 | CAATTGTG | 0.0188 E-score
54 | ACAGTCCT | -0.0757 E-score
55 | GTGAAAAA | -0.0347 E-score
56 | ACGTTATG | -0.0294 E-score
57 | CTCGGTCC | -0.325 E-score
58 | ACGCCCCT | -0.4 E-score
59 | GACCAATC | -0.0956 E-score
60 | CGGCGCCA | -0.118 E-score
61 | GAACTCAA | -0.0625 E-score
62 | ATACGCTG | -0.171 E-score
63 | AAGGAGTG | -0.112 E-score
64 | CGTTGGAC | -0.234 E-score
65 | ACCGCACG | -0.0493 E-score
66 | GGATGACC | 0.015 E-score
67 | GACACTCC | -0.0753 E-score
68 | TTACTCAA | -0.00125 E-score
69 | CTTGAATC | -0.0481 E-score
70 | AAACGATG | -0.09 E-score
71 | ATTTTCCA | 0.105 E-score
72 | GGTTATAC | 0.149 E-score
73 | CCACCCAG | -0.077 E-score
74 | GATGAGCA | -0.0926 E-score
75 | GTCCTGAA | -0.091 E-score

Row | Sequence | binding signal
76 | ACATTTGG | 0.0911 E-score
77 | AACTGGAG | -0.0792 E-score
78 | CTCGAGAA | -0.0447 E-score
79 | TCGAGTCA | -0.0547 E-score
80 | ACACCCCC | -0.185 E-score
81 | CCGTGACG | -0.0651 E-score
82 | GACTGGGC | -0.357 E-score
83 | GCATCACC | -0.18 E-score
84 | GGTATAAC | 0.266 E-score
85 | ATAAAGTC | -0.00083 E-score
86 | CTACTAGC | 0.256 E-score
87 | ATAGGCTG | -0.0725 E-score
88 | GCTTAAGA | -0.117 E-score
89 | ACCTCTGA | -0.0286 E-score
90 | CGGGTACA | 0.0353 E-score
91 | AACTCAGG | 0.021 E-score
92 | ATACCGGA | 0.0662 E-score
93 | CTACATCC | 0.113 E-score
94 | GACCTGTA | -0.217 E-score
95 | CTCATCCC | -0.256 E-score
96 | ACGAAAAT | 0.165 E-score
97 | ACCCACCG | -0.244 E-score
98 | ACAAGAGG | -0.0755 E-score
99 | ACTACCCC | 0.242 E-score
100 | ATTAAAAT | 0.218 E-score

Row | Sequence | binding signal
101 | AGTCTCAG | -0.27 E-score
102 | ATCACGAA | 0.0788 E-score
103 | CCCCTCAG | -0.312 E-score
104 | CGTTACGA | 0.0443 E-score
105 | ATCCGTTC | 0.0593 E-score
106 | TAGCGCCA | 0.0762 E-score
107 | TCCGACAA | -0.152 E-score
108 | ACCCGGCA | -0.187 E-score
109 | ATACCACC | 0.165 E-score
110 | TATCAGCA | -0.0684 E-score
111 | TGACCGAA | 0.102 E-score
112 | CAGGGAAC | -0.0657 E-score
113 | ATTCTCCC | -0.0584 E-score
114 | CCTGCACA | -0.264 E-score
115 | TAGGGTCA | -0.0723 E-score
116 | GATCTGTA | -0.0473 E-score
117 | CCCCGGGG | -0.386 E-score
118 | CTCCATTA | 0.109 E-score
119 | AACAATTA | 0.24 E-score
120 | ACGGGTTG | -0.288 E-score
121 | CGCAGGAG | 0.124 E-score
122 | ACTCTTAC | 0.0509 E-score
123 | GGCTCTTA | -0.292 E-score
124 | CGGGTCAG | -0.174 E-score
125 | CAGAGGGA | -0.195 E-score

Row | Sequence | binding signal
126 | GTCGCAGA | -0.0549 E-score
127 | AAAAATAC | 0.32 E-score
128 | CTACGCCC | -0.233 E-score
129 | CCCCAAGA | -0.151 E-score
130 | AGGTTGCA | -0.137 E-score
131 | CGCTGGCC | -0.363 E-score
132 | ACTAACGC | 0.065 E-score
133 | GATAACCA | -0.0375 E-score
134 | GGAATGCC | -0.207 E-score
135 | AGAGTGCA | -0.0621 E-score
136 | GTAACCTA | 0.00577 E-score
137 | GTCCGTAA | 0.0323 E-score
138 | AATTAGAT | 0.314 E-score
139 | GCGCCGGA | -0.0972 E-score
140 | AAGATAAT | 0.339 E-score
141 | AATGCCCG | -0.137 E-score
142 | GTACTTGA | 0.0955 E-score
143 | GGGTCGGA | -0.324 E-score
144 | CACCTTGC | -0.182 E-score
145 | AGCATATC | 0.00915 E-score
146 | GAGTCTCC | -0.12 E-score
147 | GGAGATGA | -0.174 E-score
148 | ACTAAAGA | 0.123 E-score
149 | CAACTAAG | 0.1 E-score
150 | AGGTAAAC | -0.0228 E-score

Row | Sequence | binding signal
151 | AAGTTCCG | 0.194 E-score
152 | ACGTTCGA | -0.00306 E-score
153 | CATTACAC | 0.079 E-score
154 | GCTTAGAA | 0.1 E-score
155 | ACTTCACA | 0.138 E-score
156 | CGCAGATA | 0.00922 E-score
157 | AGTAGAGC | -0.089 E-score
158 | ACGGTACT | 0.157 E-score
159 | GCACAGCA | -0.0762 E-score
160 | CAGAGCTA | 0.0342 E-score
161 | AGGTTGTG | -0.0885 E-score
162 | CAGTTAGG | -0.041 E-score
163 | AGTGATAC | 0.175 E-score
164 | ATCCCGGC | -0.122 E-score
165 | ACACAACC | -0.0277 E-score
166 | CTTTTCAC | -0.0695 E-score
167 | CCAACTTC | 0.08 E-score
168 | GGTATACA | 0.15 E-score
169 | CTAAAAGC | 0.0397 E-score
170 | ACTTTGTG | 0.0777 E-score
171 | CTGAACCC | -0.186 E-score
172 | CGTCCTTA | 0.175 E-score
